Some of these densities may be calculated back from excess volumes.
Test: xn = mol fraction of the nth substance listed
Settings: 100 kPa

CC(C)CO + CC(N)CN
x1 = 1
Settings | mass density [kg/m3]
303.15 K | 794.2
308.15 K | 790.5
313.15 K | 786.3
318.15 K | 782.2

CCC(C)O (centres undefined) + CC(N)CN
x1 = 1
Settings | mass density [kg/m3]
298.15 K | 802.6
303.15 K | 798.5
308.15 K | 798.5
313.15 K | 789.6
318.15 K | 784.9

CC(N)CN (centres undefined) + CC(C)CO
mass density [kg/m3]
Settings | 298.15 K | 303.15 K | 308.15 K | 313.15 K | 318.15 K
x2 = 0 | – | 853.6 | – | 844.5 | 839.7
x2 = 0.05 | 855.8 | 851.6 | 847.2 | 842.4 | 838.1
x2 = 0.1 | 853.9 | 849.4 | 845 | 840.5 | 836.2
x2 = 0.15 | 851.8 | 847.4 | – | 838.6 | 834.3
x2 = 0.2 | – | 845.2 | 840.7 | 836.3 | 831.9
x2 = 0.25 | 847.5 | 843.2 | 838.6 | 834.3 | 830
x2 = 0.3 | – | 841.3 | 836.8 | 832.6 | –
x2 = 0.35 | – | 839.5 | 834.8 | 830.5 | 826.2
x2 = 0.4 | 841.3 | 837.1 | 832.6 | 828.3 | 824.1
x2 = 0.45 | 839.1 | 834.9 | 830.5 | 826.4 | 821.9
x2 = 0.5 | 836.7 | – | 828.2 | 824 | –
x2 = 0.55 | 834.2 | – | 825.5 | 821.3 | 817.1
x2 = 0.6 | 831.6 | 827.5 | 822.9 | 818.8 | 814.4
x2 = 0.65 | 828.8 | – | 820.2 | 816 | 811.9
x2 = 0.7 | 825.6 | 821.4 | – | 812.9 | 808.7
x2 = 0.75 | 822 | 817.9 | 813.6 | 809.6 | 805.4
x2 = 0.8 | 817.9 | 813.8 | 809.6 | 805.6 | 801.5
x2 = 0.85 | – | 809.7 | 805.4 | 801.4 | 797.7
x2 = 0.9 | 808.8 | 805 | 800.6 | 796.6 | 792.7
x2 = 0.95 | 803.4 | 799.8 | – | 791.5 | 787.7

CC(N)CN (centres undefined) + CCC(C)O
mass density [kg/m3]
Settings | 298.15 K | 303.15 K | 308.15 K | 313.15 K | 318.15 K
x2 = 0 | 858.6 | 853.6 | 853.6 | 844.5 | 839.7
x2 = 0.05 | – | 852.2 | – | 842.4 | 837.4
x2 = 0.1 | – | 850 | 850 | 840.2 | 835.3
x2 = 0.15 | 852.4 | 848.4 | 848.4 | 838.1 | 833.1
x2 = 0.2 | 850.9 | – | 845.9 | 836.2 | 831.1
x2 = 0.25 | 847.8 | 843.2 | 843.2 | – | 829
x2 = 0.3 | 845.7 | 841 | – | 831.7 | 827
x2 = 0.35 | 843.6 | 838.9 | – | – | 824.5
x2 = 0.4 | 841.1 | 836.4 | 836.4 | 826.9 | 822.3
x2 = 0.45 | 838.9 | 834.3 | 834.3 | – | 820.1
x2 = 0.5 | 836.4 | 831.8 | 831.8 | 822.3 | 817.4
x2 = 0.55 | 833.6 | 829 | 829 | – | 815.1
x2 = 0.6 | 831.4 | 826.8 | 826.8 | 817.4 | 812.4
x2 = 0.65 | – | 823.6 | 823.6 | 814.4 | 809.7
x2 = 0.7 | 825.2 | – | 820.7 | 811.4 | 806.8
x2 = 0.75 | – | 818 | 818 | 808.6 | 803.7
x2 = 0.8 | 819.2 | 814.8 | 814.8 | – | –
x2 = 0.85 | 815.4 | 811 | 811 | 801.8 | 797.1
x2 = 0.9 | 811.9 | – | 807.2 | 798.1 | 793.3
x2 = 0.95 | 807.6 | 803.3 | – | 794.3 | –

CCCCO + CC(N)CN
x1 = 1
Settings | mass density [kg/m3]
298.15 K | 805.9
313.15 K | 794.5
318.15 K | 790.6

CC(N)CN (centres undefined) + CCCCO
mass density [kg/m3]
Settings | 298.15 K | 303.15 K | 308.15 K | 313.15 K | 318.15 K
x2 = 0 | 858.6 | 853.6 | 849.8 | 844.5 | 839.7
x2 = 0.05 | 858.1 | – | – | – | 838
x2 = 0.1 | 856.6 | 851.7 | 846.6 | 841.5 | –
x2 = 0.15 | 855.3 | 850.6 | 845.5 | 840.2 | 835.4
x2 = 0.2 | 853.5 | 848.7 | 843.7 | 839.1 | 833.8
x2 = 0.25 | – | – | – | 837.6 | 832.2
x2 = 0.3 | 849.8 | 845.2 | – | 835.7 | 830.8
x2 = 0.35 | 848.4 | 843.8 | 838.9 | 834.2 | –
x2 = 0.4 | 846.8 | – | 837.3 | – | 827.6
x2 = 0.45 | 844 | 839.3 | 834.5 | 829.7 | 825.1
x2 = 0.5 | 842.1 | – | 832.7 | – | 823.2
x2 = 0.55 | 839.2 | 834.9 | 830.1 | 825.4 | 821.1
x2 = 0.6 | 836.3 | 832.1 | 828.8 | 823.9 | 819.1
x2 = 0.65 | 834.7 | – | 825.6 | 821 | 816.5
x2 = 0.7 | 831.9 | 827.5 | 822.9 | 818.4 | –
x2 = 0.75 | 828.7 | 824.5 | 819.9 | 815.4 | 811.1
x2 = 0.8 | 825.2 | – | – | 811.9 | 807.8
x2 = 0.85 | 821.1 | 816.9 | 812.4 | 808 | –
x2 = 0.9 | 816.5 | 812.3 | 808 | 803.7 | –
x2 = 0.95 | – | 807.8 | 803.6 | – | 795.5

Source: a compilation of properties of binary mixtures (doi:10.1021/acs.jced.3c00525)
